Experimental data published in paper PMC4336329 (PLoS ONE, 2015).
The campaign covered roughly 310,000 compounds. About 14,000 (4.5%) showed an effect of 50% or more. Effects have a minus sign here. This is one part of the list.

Target: human ether-à-go-go-related gene (hERG) potassium channel (human, UniProt Q12809)
Experiment: primary screen, population patch clamp on CHO cells stably expressing hERG
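Further: peak tail current of the secondary pulse compared with the same well before compound.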

Sequence of human ether-à-go-go-related gene (hERG) potassium channel (Q12809 whole entry, looked up): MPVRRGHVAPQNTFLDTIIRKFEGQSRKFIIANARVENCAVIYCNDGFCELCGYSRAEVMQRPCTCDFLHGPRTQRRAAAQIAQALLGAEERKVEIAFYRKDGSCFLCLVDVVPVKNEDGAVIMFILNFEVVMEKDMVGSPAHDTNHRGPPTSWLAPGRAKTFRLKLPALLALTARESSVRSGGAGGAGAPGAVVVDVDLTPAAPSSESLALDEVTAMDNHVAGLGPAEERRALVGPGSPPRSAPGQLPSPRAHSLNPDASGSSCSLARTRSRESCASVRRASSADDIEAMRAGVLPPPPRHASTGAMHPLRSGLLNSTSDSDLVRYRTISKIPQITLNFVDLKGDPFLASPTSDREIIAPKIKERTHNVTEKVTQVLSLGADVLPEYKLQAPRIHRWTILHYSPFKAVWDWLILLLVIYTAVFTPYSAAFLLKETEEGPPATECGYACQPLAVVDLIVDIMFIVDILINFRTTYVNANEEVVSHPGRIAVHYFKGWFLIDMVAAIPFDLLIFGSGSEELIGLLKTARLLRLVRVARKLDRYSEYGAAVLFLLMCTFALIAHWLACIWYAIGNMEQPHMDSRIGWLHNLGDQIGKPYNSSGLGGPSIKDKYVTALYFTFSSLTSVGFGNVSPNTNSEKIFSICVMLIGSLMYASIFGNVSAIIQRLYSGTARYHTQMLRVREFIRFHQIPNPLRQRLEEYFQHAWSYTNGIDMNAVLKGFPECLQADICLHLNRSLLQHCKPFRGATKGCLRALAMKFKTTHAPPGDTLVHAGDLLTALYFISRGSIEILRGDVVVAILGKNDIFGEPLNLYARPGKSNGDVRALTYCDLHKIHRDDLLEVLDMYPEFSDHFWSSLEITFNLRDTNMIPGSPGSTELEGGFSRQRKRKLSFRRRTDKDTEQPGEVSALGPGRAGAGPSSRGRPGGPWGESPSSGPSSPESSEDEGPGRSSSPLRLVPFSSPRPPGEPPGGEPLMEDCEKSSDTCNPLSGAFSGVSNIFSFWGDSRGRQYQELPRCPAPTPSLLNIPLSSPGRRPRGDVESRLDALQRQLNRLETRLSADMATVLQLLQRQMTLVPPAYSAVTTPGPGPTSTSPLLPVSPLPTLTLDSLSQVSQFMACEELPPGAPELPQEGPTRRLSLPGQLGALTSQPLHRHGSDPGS

Row | SMILES | hERG current change (%, negative = inhibition) at 10uM [%]
1 | CC(C)c1c(C(=O)N/N=C/c2cccc3ccccc23)nnn1-c1nonc1N | 10.7
2 | COc1ccc(Oc2cc(F)nc(N)n2)cc1 | -13.8
3 | COC(=O)C(O)(CC(=O)Nc1ccc(Cl)cc1Cl)C(F)(F)F (stereo not shown) | 8.05
4 | Cc1ccc(NC(=O)Nc2ccccc2F)cc1S(=O)(=O)N1CCOCC1 | 5.25
5 | COC(=O)c1ccccc1NC(=O)c1nc2nc(C)cc(C(F)F)n2n1 | -5.65
6 | O=C(NCCO)C1(c2ccccc2)CCCC1 | 20.1
7 | Cc1ccc(S(=O)(=O)NC2(C(F)(F)F)NC(=O)N(CCc3ccccc3)C2=O)cc1 (stereo not shown) | 14
8 | COC(=O)C1=C(C(=O)OC)[C@@H]2N(C)c3ccccc3[C@@]23C[C@@H](CO)N(C(=O)C2CCC2)C3=N1 | -1.38
9 | O=C(NCc1ccccc1)c1ccc(OCC2CCCO2)cc1 (stereo not shown) | 8.41
10 | O=C(Cc1ccc(Cl)cc1)Nc1ccc(Cl)cn1 | -6.38
11 | Cc1cc(C)c(C(=O)/C=C/c2cccs2)c(=O)[nH]1 | 20
12 | COC(=O)C1=CN(C)C=C(C(=O)OC)C1c1ccc(Cl)cc1Cl | 15.8
13 | CN1CCN(S(=O)(=O)c2ccc3c4c(cccc24)C(=O)N3)CC1 | -0.59
14 | COC(=O)[C@H](CCSC)NC(=O)Nc1ccc(C)cc1 | 11.6
15 | O=C(Nc1ccc2nc3n(c(=O)c2c1)CCCC3)c1cccc(F)c1 | -43.9
16 | CCN(C(=O)Cn1c(=O)oc2ccccc21)c1cccc(C)c1 | 6.38
17 | COc1ccc(NC(=O)COc2ccc3c(c2)OCO3)cc1 | 6.65
18 | CCC1=C/C(=C/N(C)c2ccccc2)C(=O)S1 | -9.69
19 | O=S(=O)(c1ccc(-c2csc(-c3cccnc3)n2)cc1)N1CCOCC1 | -34
20 | CCOC(=O)CNC(=S)N(CCCN1CCCCCC1)Cc1cccs1 | -65.8
21 | COC(=O)c1ccc(COc2ccc3c4c(c(=O)oc3c2)CCC4)o1 | 16.9
22 | CCOC(=O)CC(=O)Nc1nc2ccccc2s1 | -8.27
23 | C=CCn1c(O)c(C=Nc2ccccc2)sc1=S | 20.6
24 | CN(C)c1ccc(C2C3CCCc4ccccc4C3=NN2C)cc1 (stereo not shown) | -27.5

Row | SMILES | hERG current change (%, negative = inhibition) at 10uM [%]
25 | Cn1c(CNc2ccc(Br)cc2)nc2ccccc21 | -17.5
26 | O=C(O)c1cccc(S(=O)(=O)Nc2ccccc2Cl)c1 | -2.26
27 | Cc1cc(=O)[nH]c(SCC(=O)N2CCC(Cc3ccccc3)CC2)n1 | -11.7
28 | CCOc1ccc(-c2nnn(CC(=O)NCc3ccc4c(c3)OCO4)n2)cc1 | -0.864
29 | CNC(=O)c1[nH]cnc1C(=O)Nc1cccc(C)c1 | -9.12
30 | CCN(CC)S(=O)(=O)c1ccc2oc(C(=O)N3CCOCC3)c(C)c2c1 | -23.3
31 | COC(=O)c1ccc(-c2noc(CN(Cc3ccncc3)CC3CCCO3)n2)cc1 (stereo not shown) | -28.5
32 | O=C(CSc1ccc(-c2ccncc2)nn1)N1CCCCC1 | -3.95
33 | CC1CN(C(=O)CN2C(=O)c3ccccc3C2=O)CC(C)O1 (stereo not shown) | 6.42
34 | Cc1ccc(C(=O)c2ccc(O)cc2)cc1C | -1.24
35 | Cc1cc(C(=O)NCc2ccc(S(N)(=O)=O)cc2)c(C)o1 | 6.23
36 | CC(C)(C)C(CO)NC(=O)c1ccc[nH]1 (stereo not shown) | 2.26
37 | Clc1cccc(Cl)c1C[n+]1cccc2ccccc21.[Br-] | 1.36
38 | N#C/C(=C\c1ccc(O)cc1)C(=O)NCc1ccccc1 | 8.49
39 | Clc1cccc(NCc2nnc(SCc3ccccc3)o2)c1 | 3.21
40 | COc1ccccc1NC(=O)Cc1nnc(SCC(=O)c2ccc(F)cc2)n1C | -16.3
41 | COc1ccc(CNc2ncc(-c3ccccc3)n2C)cc1 | -32.6
42 | CCSc1nc(O)cc(=O)n1-c1ccc(OC)cc1 | 3.73
43 | O=C(COC(=O)c1ccc(Br)o1)NCC1CCCO1 (stereo not shown) | 0.0397
44 | COCCNC(=O)c1ccc2c(c1)S(=O)(=O)c1cc(Cl)ccc1C2=O | -3.38
45 | O=C(c1ccccc1Cl)N1CCN(Cc2ccc3c(c2)OCO3)CC1 | -21.1
46 | COc1cc(/C=N/n2c(C)nnc2C)cc(OC)c1OC | 3.79
47 | O=C1CCN(CCc2ccccc2)CCN1[C@H](CO)c1ccccc1 | -25.7
48 | O=C1CCC(c2ccc(-n3ccnc3)cc2)=NN1 | -3.95

Row | SMILES | hERG current change (%, negative = inhibition) at 10uM [%]
49 | Cn1c(SCc2c(F)cccc2Cl)nc2c(c1=O)SCC2 | 6.6
50 | Fc1ccc(OCCCCCn2ccnc2)cc1 | -18.4
51 | Cc1sc2ncn3ncnc3c2c1C | 10.1
52 | O=C(COC(=O)/C=C/c1cccc(Cl)c1)Nc1ccc2[nH]c(=O)[nH]c2c1 | 12.9
53 | C/C(=N\NC(=O)c1cccnc1)c1cccc([N+](=O)[O-])c1 | -1.65
54 | Cc1cccc(NC(=O)CN(C)S(=O)(=O)c2ccc(Cl)cc2)n1 | -6.82
55 | COc1ccc(CN2CCNC(=O)C2CC(=O)N(C)Cc2nonc2C)c(F)c1 (stereo not shown) | 2.46
56 | Cc1cc(C(=O)N/N=C2\CC(=O)CC(C)(C)C2)c(C)n1-c1ccccc1 | 28.9
57 | CC(C)(C)C1CCC2(CC1)C(Nc1cccc(C(F)(F)F)c1)=NC(=S)N2CC#N (stereo not shown) | 5.17
58 | CC(C)CSc1n[nH]c(=S)s1 | 15.6
59 | c1ccc(Oc2cccc(CN3CCCCC3)c2)cc1 | -45.9
60 | Nc1nnc(SCC(=O)NC2CCCCC2)n1-c1ccccc1 | 6.78
61 | CCCCNS(=O)(=O)c1ccc(S(=O)(=O)N2CCC3(CC2)OCCO3)cc1 | 9.82
62 | COC(=O)Cc1ccc(N(Cc2ccccc2F)S(=O)(=O)c2ccc(Cl)cc2)cc1 | 4.17
63 | COc1cccc2cc(C(=O)N3CCCc4ccccc43)oc12 | -16.8
64 | Cc1nc2ccc(S(=O)(=O)NCC(=O)N3CCOCC3)cc2s1 | 6.43
65 | CC(C)[C@@H](C(=O)N1CCNCC1)n1cc(CCO)nn1.Cl | 12.8
66 | COC(=O)C1=C(c2ccc3ccccc3c2)C[C@@H]2CC[C@H]1N2C(=O)NCC1CC1 | -6.28
67 | O=C(CCC(=O)c1ccccc1)NCc1ccccc1 | -10
68 | CC(=O)Oc1ccccc1C1=NN(C(=O)/C=C/c2ccccc2)C(c2ccccc2)C1 (stereo not shown) | -8.93
69 | c1cnn(Cc2cnc(N3CCOCC3)s2)c1 | 27.7
70 | CCOc1ccc(NC(=O)NC2CC(=O)N(c3ccc(OC)cc3)C2)cc1 (stereo not shown) | -4.43
71 | CC1CCCCN1CCNC(=O)C1CCN(S(=O)(=O)c2cccc3nsnc23)CC1 (stereo not shown) | 2.44
72 | Cc1cccn2c(=O)c(/C=C(\C#N)C(N)=O)c(Oc3ccccc3)nc12 | -8.99

Row | SMILES | hERG current change (%, negative = inhibition) at 10uM [%]
73 | CCCOc1ccc(/C=N/NC(=S)Nc2ccccc2[N+](=O)[O-])c(O)c1 | 24.3
74 | O=C(N/N=C/c1ccc([N+](=O)[O-])cc1)c1cccc2cc[nH]c12 | 12.4
75 | CNC(=S)N1CCC(n2cnc3ccccc32)CC1 | -7.43
76 | CC(C)(C)c1ccc(-c2cc(N)n[nH]2)cc1 | -6.11
77 | COC(=O)C1(C)CCC(C(=O)Nc2ccccc2)C1(C)C (stereo not shown) | 1.38
78 | CCCCCC(=O)NC(CC(=O)OC)c1ccc2c(c1)OCO2 (stereo not shown) | 10.7
79 | CCC(=C(c1ccc(OC)cc1)c1ccc(OC)cc1)c1cn(CC(O)CN(CCO)CCO)c2ccccc12.O=C(O)/C=C\C(=O)O (stereo not shown) | 5.08
80 | Cc1ccc2c(c1)nnn2C1CCN(CC(=O)NNC(=O)c2ccco2)CC1 | 37.1
81 | COC(=O)CC/C(O)=C1\C(=O)CC(C)(C)CC1=Nc1ccccc1OC | 3.73
82 | Cn1ccnc1C1CCCCN1Cc1nc(-c2ccc3c(c2)OCO3)no1 (stereo not shown) | -7.65
83 | CCCOc1ccc(C(O)C(CN2CCOCC2)c2ccccc2)cc1.Cl (stereo not shown) | 1.07
84 | COc1cccc(NC(=O)CN(C)C(=O)CSc2ncnc3sc(C)c(C)c23)c1 | -15.5
85 | O=C(CSc1nnc2n1CCCCC2)Nc1ccc(N2CCOCC2)cc1 | -3.81
86 | COc1cccc(NC(=O)Nc2cc(C)ccc2OC)c1 | -3.39
87 | Cc1ccc(C(=O)OC2CCOC2=O)cc1NC(=O)c1ccco1 (stereo not shown) | 0.0901
88 | COc1cccc(N/C=C/C(=O)c2ccc(Br)cc2)c1 | 11.5
89 | CCc1cccc2c(C(=O)CSc3nnc(C4CC4)o3)c[nH]c12 | -6.51
90 | COc1ccc(CCNC(=S)N(C)C)cc1OC | 32.8
91 | CCOC(=O)N(c1ccccc1)P1(=S)OCCO1 | 0.953
92 | Cc1ccc(C(=O)OC/C(O)=C(\C#N)c2nc3ccccc3[nH]2)cc1S(=O)(=O)N1CCOCC1 | -8.52
93 | Cc1nn(C)c(C)c1NC(=O)c1ccc(Cl)cc1 | 19
94 | O=C(NC1CC(=O)N(c2ccc3c(c2)OCCO3)C1)N1CCC(O)CC1 (stereo not shown) | 9.14
